One may read the IC50 as the concentration at which inhibition is half-maximal.

The assay concerns MLKL phosphorylation, HT29-L23 human colorectal adenocarcinoma cells. In words: cells. The conditions noted are these: read-out: pMLKL HCS Cell Assay (IC50, uM).
For the molecule `COc1ncc(-c2cc(CN3CCC(C(F)(F)F)CC3)c3c(N)ncnn23)cc1C(=O)N[C@@H]1CN(C(=O)CC(O)(C(F)(F)F)C(F)(F)F)C[C@@H]1F` [Example 1631, 5-(4-amino-5-{[4-(trifluoromethyl)piperidin-1-yl]methyl}pyrrolo[2,1-f][1,2,4]triazin-7-yl)-N-[(3R,4S)-4-fluoro-1-[4,4,4-trifluoro-3-hydroxy-3-(trifluoromethyl)butanoyl]pyrrolidin-3-yl]-2-methoxypyridine-3-carboxamide], the IC50 is 0.0083 µM.
For the molecule `Cc1cc(F)c(-c2cc(C(F)(F)F)c3c(N)ncnn23)cc1C(=O)N[C@@H]1CN(C(=O)c2nc(Cl)ccc2C(F)(F)F)C[C@@H]1F` [Example 853, 5-[4-amino-5-(trifluoromethyl)pyrrolo[2,1-f][1,2,4]triazin-7-yl]-N-[(3R,4S)-1-[6-chloro-3-(trifluoromethyl)pyridine-2-carbonyl]-4-fluoropyrrolidin-3-yl]-4-fluoro-2-methylbenzamide], the IC50 was determined as 0.043 µM.
Consider `N#Cc1cc(-c2cccc(C(=O)Nc3cnn(Cc4ccccc4)c3)c2)n2ncnc(N)c12` [Example 6, 3-{4-amino-5-cyanopyrrolo[2,1-f][1,2,4]triazin-7-yl}-N-(1-benzyl-1H-pyrazol-4-yl)benzamide], for which the IC50 was 0.03 µM.
On to `COc1ncc(-c2cc(C(F)(F)F)c3c(N)ncnn23)cc1C(=O)NC1CCC(c2ccccc2)C1` (centres unmarked) [Example 1688, 5-(4-amino-5-(trifluoromethyl)pyrrolo[2,1-f][1,2,4]triazin-7-yl)-2-methoxy-N-(3-phenylcyclopentyl)nicotinamide], for which the IC50 came out at 0.086 µM.
In the case of `CC(C)(C)n1cc(NC(=O)c2cc(-c3cc(C(F)(F)F)c4c(N)ncnn34)cnc2N)cn1` [Example 35, 2-amino-5-[4-amino-5-(trifluoromethyl)pyrrolo[2,1-f][1,2,4]triazin-7-yl]-N-(1-tert-butyl-1H-pyrazol-4-yl)pyridine-3-carboxamide] it was 0.104 µM; in that of `Cc1cc(F)c(-c2cc(C(F)(F)F)c3c(N)ncnn23)cc1C(=O)N[C@@H]1CN(C(=O)c2ccncc2F)C[C@@H]1F` [Example 834, 5-[4-amino-5-(trifluoromethyl)pyrrolo[2,1-f][1,2,4]triazin-7-yl]-4-fluoro-N-[(3R,4S)-4-fluoro-1-(3-fluoropyridine-4-carbonyl)pyrrolidin-3-yl]-2-methylbenzamide], 0.01 µM.
In the case of `COc1ncc(-c2cc(C(F)(F)F)c3c(N)ncnn23)cc1C(=O)N[C@@H]1CN(C(=O)C(O)(O)C(F)(F)F)C[C@@H]1F` [Example 1670, 5-(4-amino-5-(trifluoromethyl)pyrrolo[2,1-f][1,2,4]triazin-7-yl)-N-((3R,4S)-4-fluoro-1-(3,3,3-trifluoro-2,2-dihydroxypropanoyl)pyrrolidin-3-yl)-2-methoxynicotinamide] it was 0.014 µM; in that of `COc1ncc(-c2cc(CN3CCC(F)(F)CC3)c3c(N)ncnn23)cc1C(=O)N[C@@H]1CN(C(=O)OC(C(F)(F)F)C(F)(F)F)C[C@@H]1F` [Example 1526, 1,1,1,3,3,3-hexafluoropropan-2-yl (3R,4S)-3-(5-{4-amino-5-[(4,4-difluoropiperidin-1-yl)methyl]pyrrolo[2,1-f][1,2,4]triazin-7-yl}-2-methoxypyridine-3-amido)-4-fluoropyrrolidine-1-carboxylate], 0.0068 µM; in that of `Cc1cc(F)c(-c2cc(C(F)(F)F)c3c(N)ncnn23)cc1C(=O)N[C@@H]1CN(C(=O)C2CC(F)(F)C2)C[C@@H]1F` [Example 67, 5-(4-amino-5-(trifluoromethyl)pyrrolo[2,1-f][1,2,4]triazin-7-yl)-N-((3R,4S)-1-(3,3-difluorocyclobutane-1-carbonyl)-4-fluoropyrrolidin-3-yl)-4-fluoro-2-methylbenzamide], 0.0052 µM.
In the case of `Nc1ncnn2c(-c3ccc(F)c(C(=O)N[C@@H]4CN(C(=O)C5CC(F)C5)C[C@@H]4F)c3F)cc(C(F)(F)F)c12` (stereo partly drawn) [Example 723, 3-[4-amino-5-(trifluoromethyl)pyrrolo[2,1-f][1,2,4]triazin-7-yl]-2,6-difluoro-N-[(3R,4S)-4-fluoro-1-(3-fluorocyclobutanecarbonyl)pyrrolidin-3-yl]benzamide], the IC50 is 0.252 µM.
With `COc1cc(C(=O)N[C@@H]2CN(C(=O)C(C)(C)F)C[C@@H]2F)cc(-c2cc(C(F)(F)F)c3c(N)ncnn23)c1` [Example 585, 3-[4-amino-5-(trifluoromethyl)pyrrolo[2,1-f][1,2,4]triazin-7-yl]-N-[(3R,4S)-4-fluoro-1-(2-fluoro-2-methylpropanoyl)pyrrolidin-3-yl]-5-methoxybenzamide] the figure was 0.049 µM; with `Nc1ncnn2c(-c3ccc(F)c(C(=O)N[C@@H]4CN(C(=O)CC(C(F)(F)F)C(F)(F)F)C[C@@H]4F)c3F)cc(C(F)(F)F)c12` [Example 732, 3-[4-amino-5-(trifluoromethyl)pyrrolo[2,1-f][1,2,4]triazin-7-yl]-2,6-difluoro-N-[(3R,4S)-4-fluoro-1[4,4,4-trifluoro-3-(trifluoromethyl)butanoyl]pyrrolidin-3-yl]benzamide], 0.024 µM; with `COc1ncc(-c2cc(CN3CC(O)C3)c3c(N)ncnn23)cc1C(=O)N[C@@H]1CN(C(=O)C2CC(F)(F)C2)C[C@@H]1F` [Example 488, 5-{4-amino-5-[(3-hydroxyazetidin-1-yl)methyl]pyrrolo[2,1-f][1,2,4]triazin-7-yl]-N-[(3R,4S)-1-(3,3-difluorocyclobutanecarbonyl)-4-fluoropyrrolidin-3-yl]-2-methoxypyridine-3-carboxamide], 0.012 µM.
In the case of `COc1ncc(-c2cc(C(F)(F)F)c3c(N)ncnn23)cc1C(=O)N[C@@H]1CN(C(C)c2sc(C)nc2C)C[C@@H]1F` (stereo partly drawn) [Example 1404, 5-[4-amino-5-(trifluoromethyl)-pyrrolo[2,1-f][1,2,4]triazin-7-yl]-N-[(3R,4S)-1-[1-(2,4-dimethyl-1,3-thiazol-5-yl)-ethyl]-4-fluoropyrrolidin-3-yl]-2-methoxypyridine-3-carboxamide], the IC50 was 0.093 µM.
In the case of `COc1ncc(-c2cc(CN3CCC(F)(F)CC3)c3c(N)ncnn23)cc1C(=O)N[C@@H]1CN(C(=O)OCC(F)F)C[C@@H]1F` [Example 1499, 2,2-difluoroethyl (3R,4S)-3-(5-{4-amino-5-[(4,4-difluoropiperidin-1-yl)methyl]pyrrolo[2,1-f][1,2,4]triazin-7-yl}-2-methoxypyridine-3-amido)-4-fluoropyrrolidine-1-carboxylate] it was 0.00077 µM; in that of `COc1ncc(-c2cc(C(F)(F)F)c3c(N)ncnn23)cc1C(=O)NCCC(=O)c1ccc(F)cc1` [Example 149, 5-[4-amino-5-(trifluoromethyl)pyrrolo[2,1-f][1,2,4]triazin-7-yl]-N-[3-(4-fluorophenyl)-3-oxopropyl]-2-methoxypyridine-3-carboxamide], 0.026 µM.
For `Cc1ccc(-c2cc(C(F)(F)F)c3c(N)ncnn23)cc1C(=O)N[C@@H]1CN(C(=O)c2cnccc2C(F)(F)F)C[C@@H]1F` [Example 1009, 5-[4-amino-5-(trifluoromethyl)pyrrolo[2,1-f][1,2,4]triazin-7-yl]-N-[(3R,4S)-4-fluoro-1-[4-(trifluoromethyl)pyridine-3-carbonyl]pyrrolidin-3-yl]-2-methylbenzamide], the concentration for half-maximal inhibition (IC50) worked out at 0.024 µM.

For the origin of these results see patent US11618753B2 (priority 2018, dated 2023).
